Values joined by “and” are separate entries in the source; they are usually repeats but may differ in a detail not shown here. Identical values can stand only once. Screen size: about 380,000 compounds; about 4,000 (1.1%) were called active. Inconclusive means that the source gave no clear call. Such entries were picked first, then a sample of the others. Calls come from the whole dose curve; as a rule, active = well fitted activation curve with a large enough effect; inconclusive = small, poorly fitted or top-dose-only effect; inactive = no such curve, though single readings can be large or run the other way. A potency beside an inconclusive call is a rough fit, not a confirmed value.
Assay: qHTS Assay to Identify Small Molecule Activators of BRCA1 Expression; note: nearly all actives have a fitted effect of over 80% in size
Conditions: MCF7-BRCA1-FFLuc reporter, luminescence, 48 h; activation: at 46.1 µM (top of the series), scaled: vehicle 0%, 10 µM genistein 100% unless noted
Outline: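 Luminescence from a BRCA1-driven firefly luciferase in MCF7 cells was read after 48 h compound exposure at 37 C. Data normalized against DMSO and a 10microM genistein activation control, then curve-fitted across the titration.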
Potency is the fitted concentration of half-maximal effect; tags give direction and shape of the fitted curve.

Structure (SMILES) | Potency | activation
CN(C)/C=N/C(=S)Nc1ccccc1Cl | inconclusive: 35.5 µM [activator, single point] | 
C=CCSC(=C(C#N)C#N)c1cc2c([nH]1)CCCC2 |  | inactive: -96.1%
COc1ccc(/C=C/C(=O)Nc2ccccc2)cc1OC | active: 11.2 µM | 
N#CCC(=O)Nc1ccc(C(=O)OCC(=O)NC2CCCCCC2)cc1 |  | inactive: 1.75%
Oc1ccc(-c2csc(Nc3ccccn3)n2)cc1 | inconclusive: 1 µM [activator, full curve, poor fit] | 
Cc1ccc2oc(-c3cccc(NC(=O)C4CCCO4)c3)nc2c1 (configuration not stated) |  | inactive: 76.4%
Nc1cccc2c1C(=O)N(C(=O)/C=C/c1ccc(F)cc1)C2=O |  | inactive: -84.6%
NC(=O)c1ccccc1NC(=O)/C=C/c1ccccc1 | inconclusive: 2.51 µM [activator, full curve, poor fit] | 
c1coc(-c2nc(-c3ccncc3)no2)c1 | active: 3.16 µM | 
N#Cc1c(NC(=O)C2CCCO2)sc2c1CCCCC2 (configuration not stated) | inconclusive: 31.6 µM [activator, single point] | 
Cc1c(NC(=O)c2cc3c(s2)-c2ccccc2OC3)cccc1[N+](=O)[O-] |  | inactive: -70.7%
Cc1ccc(Nc2nc3ccccc3[nH]2)nc1 | inconclusive: 2.51 µM [activator, full curve, poor fit] | 
Cc1cccc(C)c1NC(=O)c1c[nH]c2ccccc12 | active: 3.55 µM | 
COc1ccc(N2Nc3n[nH]c(N)c3N2)cc1 | inconclusive: 11.2 µM [activator, partial curve, poor fit] | 
CCCCC(=O)OCC(=O)Nc1cccc(S(=O)(=O)NC2=NCCCCC2)c1 |  | inactive: 3.6%
CS(=O)(=O)Nc1ccc(C2=NN(S(C)(=O)=O)C(c3cccs3)C2)cc1 (configuration not stated) | inconclusive: 12.6 µM [activator, partial curve, poor fit] | 
Nc1nc(N)c2sc3nc4c(cc3c2n1)CCC4 | inconclusive: 10 µM [activator, partial curve, poor fit] | 
COc1ccc(CCN2CC(C(=O)NCCc3ccccc3)CC2=O)cc1OC (configuration not stated) | inconclusive: 35.5 µM [activator, single point] | 
Nc1c(C(=O)Nc2ccc3c(c2)OCCO3)nnn1Cc1ccc(Br)cc1 | inconclusive: 1.58 µM [activator, full curve, poor fit] | 
CCOc1cc(NC(=O)c2cccs2)c(OCC)cc1NC(=O)c1ccccn1 |  | inactive: -2.39%
CCc1ccc(NC(=S)NC(=O)CC(C)C)cc1 | active: 6.31 µM | 
Cc1ccc(NC(=O)CSc2nccn2C)cc1F | inconclusive: 3.16 µM [activator, partial curve, poor fit] | 
C=CCC1NCCc2c(Br)cccc21 (configuration not stated) |  | inactive: 1.69%
Cc1ccc(-c2nnc(N(C)C(=O)c3cccnc3)s2)cn1 | inconclusive: 11.2 µM [activator, partial curve, poor fit] | 

Structure (SMILES) | Potency | activation
COCC(=O)Nc1c(C(=O)Nc2cccc(OC)c2)oc2ccccc12 | inconclusive: 1.26 µM [activator, partial curve, poor fit] | 
COC(=O)c1ccc(NC(=O)c2ccco2)cc1 | inconclusive: 1.78 µM [activator, full curve, poor fit] | 
CCCNC(=O)OCc1cccnc1Sc1ccc(C)cc1 | inconclusive: 15.8 µM [activator, partial curve, poor fit] | 
COc1ccc(Oc2nccc(-c3ccccc3)c2C#N)cc1 | active: 5.01 µM | 
CC(C)(C)c1ccc(C(=O)N2CCC(NC(=O)c3ccccc3)CC2)cc1 |  | inactive: 13.9%
O=C(c1cc(-c2ccccc2O)on1)N1CCOCC1 | inconclusive: 11.2 µM [activator, partial curve, poor fit] | 
N#Cc1ccc(C(=O)Nc2ccc3ccccc3c2)cc1 | inconclusive: 2.82 µM [activator, full curve, poor fit] | 
Fc1ccccc1SCc1nnc(-c2ccccc2Br)o1 | inconclusive: 2.51 µM [activator, full curve, poor fit] | 
CCCc1ccc2oc(C(=O)NCc3nnc(C)o3)c(C)c2c1 | inconclusive: 5.01 µM [activator, partial curve, poor fit] | 
Cc1cccc(Nc2ccc(NCc3ccccc3)nn2)c1 | inconclusive: 11.2 µM [activator, partial curve, poor fit] | 
O=C(Nc1nnc(CCc2ccccc2)s1)c1ccccc1 | inconclusive: 17.8 µM [activator, partial curve, poor fit] | 
c1ccc(-c2cn3c(n2)SCC3)cc1 | inconclusive: 22.4 µM [activator, single point] | 
Clc1ccccc1Nc1nc(-c2cccnc2)cs1 | inconclusive: 31.6 µM [activator, single point] | 
CSc1cccc(NC(=O)CCCOc2cc(=O)n(C)c3ccccc23)c1 |  | inactive: -0.413%
COc1ccc2c(CN(C)Cc3ccccc3)cc(=O)oc2c1 | active: 5.01 µM | 
CC(C)N1CCc2c(sc(NC(=S)NC(=O)c3ccccc3)c2C#N)C1 | inconclusive: 7.94 µM [activator, partial curve, poor fit] | 
Cc1cc(C(=O)COC(=O)c2ccc(NC(=O)CC#N)cc2)c(C)n1CC(F)(F)F | inconclusive: 10 µM [activator, partial curve, poor fit] | 
Cc1cc(OCc2cn3cccnc3n2)ccc1Cl | inconclusive: 2 µM [activator, full curve, poor fit] | 
CC(C)(C)c1nnc(SCC(=O)Nc2ccc(N3CCCCC3)cc2)n1N | active: 3.98 µM | 
CCCCNc1ccc2c(c1)C1CC2CCN1C(=O)OCc1ccccc1 (configuration not stated) | active: 8.91 µM | 
Cc1ccc(-c2nc3ccc(Br)cn3c2Cc2ccccc2)cc1 | inconclusive: 10 µM [activator, partial curve, poor fit] | 
Clc1ccc2[nH]c(-c3ccccc3)cc2c1 | inconclusive: 31.6 µM [activator, single point] | 
O=C(Nc1ccc2nsnc2c1)NC1CCCCC1 | inconclusive: 2.82 µM [activator, full curve, poor fit] | 
O=C(COc1ccc(Br)cc1CNCCc1ccccc1)NCc1ccccc1 |  | inactive: -12%

Structure (SMILES) | Potency | activation
CCc1cc2c(=O)c(-c3ccc4c(c3)OCCO4)c(C)oc2cc1OS(C)(=O)=O |  | inactive: -70.8%
O=C(COC(=O)CC1CCCC1)Nc1cc2c(cc1Cl)C(=O)c1ccccc1C2=O | inconclusive: 15.8 µM [activator, single point] | 
COc1ccc(C(=O)CC(=O)c2ccccc2)cc1 | active: 7.94 µM | 
O=C(CSc1cccs1)Nc1ccc2ccccc2c1 | inconclusive: 20 µM [activator, partial curve, poor fit] | 
CC(=O)N/C(N)=N/c1nc2cc(C)ccc2o1 | inconclusive: 2 µM [activator, full curve, poor fit] | 
Cc1csc(N/N=C/c2ccc([N+](=O)[O-])cc2)n1 | inconclusive: 10 µM [activator, partial curve, poor fit] | 
Cc1cc(C)cc(C(=O)NC(=S)Nc2ccc3c(c2)OCCO3)c1 | inconclusive: 2.82 µM [activator, partial curve, poor fit] | 
O=C(c1cnn(-c2ccccc2)c1)c1ccc2ccccc2c1O | inconclusive: 8.91 µM [activator, partial curve, poor fit] | 
C/[N+]([O-])=C\c1cccc(OCCN2CCN(c3ncc(C(F)(F)F)cc3Cl)CC2)c1 |  | inactive: -49.5%
COc1cccc(C(=O)Nc2ccc(-c3nc4ccc(C)cc4s3)cc2)c1OC | inconclusive: 1.58 µM [activator, partial curve, poor fit] | 
CN(C)c1ccc(NC(=O)/C=C/c2ccccc2Cl)cc1 | inconclusive: 1.78 µM [activator, full curve, poor fit] | 
S=C(NCCc1ccccc1)Nc1ccccc1 | inconclusive: 17.8 µM [activator, partial curve, poor fit] | 
CCCCn1c(N)c(N(CCC(C)C)C(=O)C2CC(=O)N(Cc3ccc(C)cc3)C2)c(=O)[nH]c1=O (configuration not stated) |  | inconclusive: 60.3% [activator]
Cc1ccc(S(=O)(=O)N2CCOCC2)cc1C(=O)Nc1ccc(S(=O)(=O)Nc2nccs2)cc1 |  | inactive: 2.11%
COC(=O)c1ccc(COc2cccc(C)c2C)cc1 | active: 10 µM | 
CCOC(=O)N1CCN(C(=O)c2ccc3oc(CCCc4ccccc4)nc3c2)CC1 | inconclusive: 2.51 µM [activator, partial curve, poor fit] | 
O=S(=O)(c1ccc(Cl)cc1)N1CCC(n2cnc3cc(C(F)(F)F)ccc32)CC1 |  | inactive: -55.3%
CCOC(=O)N1CCN(C(=O)c2cc3cc(Cl)ccc3[nH]2)CC1 |  | inactive: -33.5%
C=CCN=c1scc(-c2ccccc2)n1/N=C/c1ccccn1 | inconclusive: 1.26 µM [activator, full curve, poor fit] and inconclusive: 631 nM [activator, full curve, poor fit] | 
c1nc(Nc2ccc(N3CCOCC3)cc2)c2ccsc2n1 | inconclusive: 11.2 µM [activator, partial curve, poor fit] | 
O=C(NCCc1ccccc1)c1ccc(S(=O)(=O)N2CCCC2)cc1 | inconclusive: 35.5 µM [activator, single point] | 
O=C(c1cc(COc2ccc(F)cc2Cl)on1)N1C[C@H]2CC[C@H]1C2 | inconclusive: 8.91 µM [activator, partial curve, poor fit] | 
Fc1ccccc1-c1nc2ccccc2[nH]1 | active: 3.98 µM | 
CCOc1ccc(-c2nnc(NC(=O)C3CCCC3)o2)cc1 | inconclusive: 15.8 µM [activator, single point] | 

Reference: PubChem BioAssay AID624202 (National Center for Advancing Translational Sciences (NCATS), 2012)
